# Results as given in PubChem BioAssay AID686979 (National Center for Advancing Translational Sciences (NCATS), 2013).
# Values joined by “and” are separate entries in the source; they are usually repeats but may differ in a detail not shown here. Equal values may be shown once. Screen size: about 420,000 compounds; about 50,000 (12%) were called active. The inconclusive results got no clear call from the source; some entries with a clear call stand among them for comparison. Calls come from the whole dose curve; as a rule, active = well fitted inhibition curve with a large enough effect; inconclusive = small, poorly fitted or top-dose-only effect; inactive = flat fitted curve, though single readings scatter. Potencies of inconclusive entries are doubtful fits and often do not repeat.
# Assay: qHTS for Inhibitors of human tyrosyl-DNA phosphodiesterase 1 (TDP1): qHTS in cells in presence of CPT; note: nearly all actives have a fitted effect of over 55% in size
# Conditions: chicken DT40 Tdp1-/-;hTDP1 cells + 20 nM CPT, ATP luminescence, 48 h; activity change, negative = growth inhibition: at 46.2 µM (top of the series) unless noted
# Outline: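 Chicken DT40 Tdp1-/- cells complemented with human TDP1, 400 cells/well, exposed to compounds plus 20 nM camptothecin for at least 48 h at 37 C; viability read as ATP content by CellTiter-Glo luminescence.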
# % is set by controls: 0 for no effect and ±100 for the full control effect; potency is the fitted concentration of half-maximal effect; tags give direction and shape of the fitted curve.
Compound,"activity change, negative = growth inhibition",Potency
Cc1noc(NS(=O)(=O)c2ccc(NC(=O)COc3ccc(C#N)cc3)cc2)c1C,inactive: 4.91%,
Cc1ccc2c(c1)N(CC(=O)N1CCC(C)CC1)C(=O)c1cccnc1O2,inactive: 1.35%,
O=C1C[C@@H]2C(=O)N(c3ccccc3)C(=O)[C@@H]2[C@@H]2CN(S(=O)(=O)c3ccccc3)[C@@H](c3ccccc3)[C@H]12,inactive: -15.4%,
CC(C)(C)OC(=O)N1CCCC(C(=O)Nc2ccc(C(=O)N3CCCCC3)cc2)C1 (stereo unspecified),,"inconclusive: 29.1 µM [inhibitor, single point]"
O=C(c1ccoc1)N1CCC2(CC1)Oc1ccc(F)cc1C(=O)C21CC(c2ccc(Cl)cc2)=NO1 (stereo unspecified),,"inconclusive: 16.4 µM [inhibitor, partial curve]"
COc1cccc(-c2cc3nc(-c4ccccc4)cc(N4CCC5(CC4)OCCO5)n3n2)c1,,"inconclusive: 20.6 µM [inhibitor, single point]"
CCN(CC)C(=O)c1nc[nH]c1C(=O)N(C)Cc1ccccc1,inactive: 4.56%,
Cc1ccccc1Nc1cc(C(=O)NC2CCCC2)c2ccccc2n1,inactive: -26.5%,
Cc1[nH]c2c(C)cccc2c1CCNC(=O)c1ccc2c(c1[N+](=O)[O-])C(=O)c1ccccc1C2=O,,active: 16.4 µM
CCCCNC(=O)C[C@@H]1C[C@@]2(C(=O)OCC)CCCC=C2N(CCc2ccc(OC)c(OC)c2)C1=O,,active: 1.46 µM
COc1ccc(NC(=O)c2ccc3c(=O)n4nc(Nc5ccccc5C)sc4nc3c2)cc1Cl,,active: 7.31 µM
O=C(OCc1cc(=O)n2ccsc2n1)c1ccc(O)cc1O,inactive: -19.9%,
CCN(CC)S(=O)(=O)c1ccc(C(=O)NCCN2C(=O)S/C(=C\c3cccnc3)C2=O)cc1,,"inconclusive: 29.1 µM [inhibitor, single point]"
Cc1nc(-c2nc(-c3c(C(=O)NNC(=O)c4ccc(Cl)cc4)noc3C)cs2)cs1,inactive: -5.79%,
COc1ccc2[nH]cc(CCNc3ncnc4ccc(-c5ccc6c(c5)OCO6)cc34)c2c1,,"inconclusive: 20.6 µM [inhibitor, single point]"
CCCCCCn1c(COc2ccccc2F)nnc1SCC(=O)NC1CCS(=O)(=O)C1 (stereo unspecified),,"inconclusive: 16.4 µM [inhibitor, single point]"
CCOC(=O)c1[nH]c2ccc(Cl)cc2c1NC(=O)/C=C/c1ccc2c(c1)OCO2,,"inconclusive: 29.1 µM [inhibitor, single point]"
O=C(Nc1ccc(C(=O)N2CCOCC2)cc1)c1ccccc1,inactive: -1.99%,
CCN(C(=O)c1cc2c(=O)oc3ccccc3c2s1)c1ccc(C)c(C)c1,,"inconclusive: 14.6 µM [inhibitor, partial curve, poor fit]"
Cc1ccc(Cn2c(C(=O)O)c(CNC3CCCCC3)c3ccc(C)cc32)cc1,,"inconclusive: 29.1 µM [inhibitor, single point]"
CC(C)CCNc1nc2c(cc1C#N)COC(C)(C)C2,inconclusive: -31.2% [inhibitor],
COc1ccc(C)cc1NC(=O)Cc1csc(NC(=O)Nc2ccccc2OC)n1,,"inconclusive: 20.6 µM [inhibitor, single point]"

Compound,"activity change, negative = growth inhibition",Potency
CCCOc1ccc(NC(=O)CC2C(=O)N(c3ccccc3)C(=O)N2Cc2ccc(F)cc2)cc1 (stereo unspecified),,active: 16.4 µM
O=c1c(Cc2ccc(F)cc2)c(O)ccn1CCc1cnc[nH]1,inactive: -1.18%,
Cc1cc(C(=O)N/N=C/c2cc([N+](=O)[O-])cc(C)c2O)n[nH]1,,"inconclusive: 29.1 µM [inhibitor, single point]"
COc1cc2cc(CN(Cc3cccnc3)C(=O)Nc3ccccc3)c(=O)[nH]c2cc1OC,,"inconclusive: 23.1 µM [inhibitor, single point]"
O=C(NC(=S)Nn1cnnc1)c1cccc(Br)c1,inactive: 1.66%,
COc1ccc(CC(=O)NNC(=O)COc2ccc(Cl)cc2C)cc1S(=O)(=O)N1CCOCC1,,"inconclusive: 29.1 µM [inhibitor, single point]"
O=C(OCc1ccccc1)N1CCC2CC1c1c(Cl)cccc12 (stereo unspecified),,"inconclusive: 23.1 µM [inhibitor, partial curve]"
CC(=O)c1ccc(OC2(C)CCN(Cc3cccn3-c3nccs3)C2)cc1 (stereo unspecified),,"inconclusive: 23.1 µM [inhibitor, single point]"
CCOc1ccccc1NC(=O)Cn1c(=O)n(Cc2nc(C)no2)c(=O)c2ccccc21,inactive: -10.3%,
O=C(c1ccco1)N1CCN(CCCCOc2ccc(F)cc2)CC1,,"inconclusive: 25.9 µM [inhibitor, single point]"
Cc1ccc(C(=O)NCC(c2ccc3c(c2)OCO3)N2CCN(c3ccc(F)cc3)CC2)cc1 (stereo unspecified),,active: 2.91 µM
CS(=O)(=O)c1ccc(/C=C2\C=Cc3ccccc32)cc1,,"inconclusive: 25.1 µM [inhibitor, single point]"
CCN1CCN(c2cc(C)c3cc(NC(=S)N(C)Cc4ccccc4)ccc3n2)CC1,,"inconclusive: 23.1 µM [inhibitor, single point]"
Cc1ccccc1C(=O)Nc1ccccc1OCc1cc(=O)n2ccccc2n1,,"inconclusive: 29.1 µM [inhibitor, single point]"
O=C(COC(=O)c1cccnc1)NC1CCCc2ccccc21 (stereo unspecified),inactive: 21.8%,
CC(c1c(O)c2ccccc2[nH]c1=O)C1(C)CCC(O)C(C)(C)O1 (stereo unspecified),,"inconclusive: 16.4 µM [inhibitor, single point]"
COc1ccc(NC(=O)Nc2ccc3c(c2)N(C)C(=O)CS3)cc1Cl,,"inconclusive: 18.4 µM [inhibitor, single point]"
Cc1ccc2nc(NC(=O)CCNS(=O)(=O)c3cccs3)sc2c1,,"inconclusive: 29.1 µM [inhibitor, single point]"
CC(=O)C1=NOC(CNc2ncc(C(F)(F)F)cc2Cl)C1 (stereo unspecified),inactive: -3.84%,
CC(=O)c1cccc(NC(=O)C(C)OC(=O)c2ccc(-n3cnnn3)cc2)c1 (stereo unspecified),,"inconclusive: 14.6 µM [inhibitor, partial curve]"
CCn1cc(C(=O)NCCCN2CCN(C)CC2)c(=O)c2cc(S(=O)(=O)N3CCc4ccccc4C3)ccc21,inactive: -13.9%,
Cc1ccccc1C(=O)Nc1ccccc1C(=O)NCC(C)C,,"inconclusive: 16.4 µM [inhibitor, partial curve, poor fit]"

Compound,"activity change, negative = growth inhibition",Potency
OC(c1cccc(Cl)c1)c1ncc(-c2cccc(C(F)(F)F)c2)[nH]1 (stereo unspecified),,"inconclusive: 29.1 µM [inhibitor, single point]"
Cc1cccc(CS(=O)(=O)Cc2ccc(C(=O)NCc3ccccc3)o2)c1,,"inconclusive: 16.4 µM [inhibitor, single point] and inconclusive: 20.6 µM [inhibitor, single point]"
COC(=O)C1=C(Nc2ccc(OC)cc2)C=C(C)C(C(=O)OC)C1c1ccc(C)cc1 (stereo unspecified),,active: 16.4 µM
Cc1cccc(-c2nc(S(=O)(=O)c3ccc(Cl)cc3)c(N3CCCCCC3)o2)c1,,"inconclusive: 25.9 µM [inhibitor, single point]"
Cc1cc2nccc(/C=C/c3ccc(N(C)C)cc3)c2cc1C,,"inconclusive: 12.6 µM [inhibitor, partial curve, poor fit]"
O=C(c1cnc2n(c1=O)CCS2)N1CCN(c2ccc([N+](=O)[O-])cc2)CC1,,"inconclusive: 16.4 µM [inhibitor, partial curve]"
CCN1CCN(C2=C(NS(=O)(=O)c3ccc(Br)cc3)C(=O)c3ccccc3C2=O)CC1,,active: 20.6 µM
CCCOc1cc(N(CC)CC)ccc1/C=C(/C#N)c1nc2ccc(C)cc2[nH]1,,active: 20.6 µM
CCOc1ccc(CCNC(=O)c2c(C)oc3ncn(CC(C)C)c(=O)c23)cc1,,"inconclusive: 29.1 µM [inhibitor, single point]"
Cc1cc(N2CCOCC2)nc2ccc(NC(=S)N3CCN(Cc4ccccc4)CC3)cc12,,"inconclusive: 29.1 µM [inhibitor, single point]"
COc1ccccc1N1CCN(C(=O)c2sc3nc(-c4ccccc4)cn3c2C)CC1,,active: 16.4 µM
CCOc1ccccc1CNC(=O)c1nc(-c2ccc(Cl)cc2)n2c1CCCCC2,,active: 23.1 µM
COc1ccc(Oc2ncc3nc(-c4cccs4)c(=O)n(Cc4cccc(OC)c4)c3n2)cc1,inactive: -0.647%,
CCN(CC)c1nc2c(S(=O)(=O)c3ccccc3)nnn2c2ccc(Cl)cc12,,"inconclusive: 29.1 µM [inhibitor, single point]"
Cc1ccc(C(=O)O/N=C2\CCSc3ccc(C)cc32)cc1,,"inconclusive: 2.31 µM [inhibitor, full curve, poor fit]"
CCOC(=O)c1ccc(P(=O)(c2ccccc2)c2ccccc2)cc1,,"inconclusive: 29.1 µM [inhibitor, single point]"
CN1CCN(CCCNC(=O)c2ccc(Cn3c(=S)[nH]c4ccc(Br)cc4c3=O)cc2)CC1,,"inconclusive: 29.1 µM [inhibitor, single point]"
O=C(/C=C/c1cccs1)c1ccc(NC(=O)c2cccc(Br)c2)cc1,,"inconclusive: 18.4 µM [inhibitor, single point]"
CN(Cc1ccccc1)N=Nc1nc[nH]c1C(N)=O,,"inconclusive: 32.6 µM [inhibitor, partial curve, poor fit]"
O=C(CCNC(=O)c1ccccc1Cl)Nc1nc2ccccc2[nH]1,inactive: -1.51%,
CC1CCN(C(=O)c2ccccc2SCC(=O)NCC2CCCCC2)CC1,,"inconclusive: 20.6 µM [inhibitor, single point]"
Cc1ccc(S(=O)(=O)N2CCCCC2)cc1C(=O)N1C(C)CCCC1C (stereo unspecified),,"inconclusive: 18.4 µM [inhibitor, single point]"
